Measured values reported in publication PMC4336329 (PLoS ONE, 2015).
Among all 310,000 compounds or so, about 2,200 (0.71%) showed an effect of 50% or more. Effects have a minus sign here. The list shows a part of the results.

These molecules were tested against human ether-à-go-go-related gene (hERG) potassium channel (human, UniProt Q12809) (assay: primary screen, population patch clamp on CHO cells stably expressing hERG).
Chain of human ether-à-go-go-related gene (hERG) potassium channel (Q12809 whole entry, looked up): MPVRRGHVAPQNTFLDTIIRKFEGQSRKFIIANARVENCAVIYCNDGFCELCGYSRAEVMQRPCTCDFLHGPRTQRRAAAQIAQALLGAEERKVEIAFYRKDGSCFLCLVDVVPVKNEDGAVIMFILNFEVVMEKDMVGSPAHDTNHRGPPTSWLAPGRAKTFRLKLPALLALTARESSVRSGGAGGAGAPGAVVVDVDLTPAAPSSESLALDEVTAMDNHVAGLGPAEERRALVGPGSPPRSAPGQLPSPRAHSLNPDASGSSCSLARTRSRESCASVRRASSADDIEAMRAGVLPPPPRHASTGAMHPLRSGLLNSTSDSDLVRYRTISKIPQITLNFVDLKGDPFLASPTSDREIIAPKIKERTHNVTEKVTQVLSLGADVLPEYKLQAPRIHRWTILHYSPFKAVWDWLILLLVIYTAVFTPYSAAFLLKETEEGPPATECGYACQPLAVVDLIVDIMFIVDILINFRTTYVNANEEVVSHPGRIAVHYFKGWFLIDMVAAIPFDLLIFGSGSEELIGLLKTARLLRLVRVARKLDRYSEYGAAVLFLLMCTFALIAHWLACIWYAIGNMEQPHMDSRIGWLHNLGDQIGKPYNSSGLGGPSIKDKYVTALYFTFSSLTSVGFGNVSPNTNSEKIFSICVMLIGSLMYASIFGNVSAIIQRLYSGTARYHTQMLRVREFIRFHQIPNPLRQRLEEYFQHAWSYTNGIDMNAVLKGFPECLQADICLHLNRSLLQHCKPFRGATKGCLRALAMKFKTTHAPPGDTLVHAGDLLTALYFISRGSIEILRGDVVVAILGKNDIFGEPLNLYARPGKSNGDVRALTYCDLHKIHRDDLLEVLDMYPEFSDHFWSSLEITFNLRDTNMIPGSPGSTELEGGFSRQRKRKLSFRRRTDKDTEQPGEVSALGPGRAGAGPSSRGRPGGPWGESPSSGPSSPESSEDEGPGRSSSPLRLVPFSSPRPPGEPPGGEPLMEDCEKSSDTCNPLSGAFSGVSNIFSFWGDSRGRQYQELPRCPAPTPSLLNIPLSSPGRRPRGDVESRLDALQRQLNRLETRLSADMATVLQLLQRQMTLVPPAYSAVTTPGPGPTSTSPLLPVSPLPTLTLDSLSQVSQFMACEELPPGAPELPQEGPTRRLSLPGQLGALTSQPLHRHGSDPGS

SMILES | hERG current change (%, negative = inhibition) at 1uM [%]
CC1CCN(c2c(NCC3CCC(C(=O)NC4CCCCCC4)CC3)c(=O)c2=O)CC1 (centres unmarked) | 9.32
Nc1nnc(SCCCC(=O)c2ccc(Br)cc2)s1 | 9.04
O=C(CCNS(=O)(=O)c1ccccc1F)N1CCN(C/C=C/c2ccccc2)CC1 | 1.31
O=C(COc1ncnc2sccc12)NC1CCCc2ccccc21 (centres unmarked) | 15.5
COc1cccc(CN2CC(C(=O)NC3CCCCCC3)CCC2=O)c1 (centres unmarked) | 12.5
CCC(=Nc1ccc(OC)cc1OC)c1c(O)n(C2CCCCC2)c(=O)[nH]c1=O | 1.31
Cc1ccc(N(Cc2cc3ccc(C)cc3[nH]c2=O)C(=O)c2ccco2)cc1 | 0.475
CCN(CC)c1ccc(NC(=O)Nc2cccc3ccccc23)cc1 | 11.2
Cc1cccc(N2CCN(C(=O)C3CCC(=O)N(Cc4ccccc4F)C3)CC2)c1C (centres unmarked) | 15.8
COC(=O)Nc1ccc(Cn2cc(C(F)(F)F)ccc2=O)cc1 | 12.1
CCc1cccc(OC2OC(CO)C(O)C(O)C2NC(C)=O)c1 (centres unmarked) | 10.3
CC(=O)NCC1(O)CCCC(C)C1 (centres unmarked) | 17.7
C=CCNC(=O)c1ccc(NC(=O)C2=CSCCO2)cc1 | 0.0421
O=[N+]([O-])c1ccc2c(c1)c1ccccc1n2CCO | -0.971
CCCCN1C(=O)C(=O)NC[C@@H]1C(C)O (some centres unmarked) | 17.6
CC(=O)N[C@@H](C)c1nc2ccccc2n1CCNC(=O)[C@H]1CCCN1c1nc(CN2CCCCC2)cs1 | 13.3
Cc1nc(NC(=O)COc2ccccc2)sc1C(=O)Nc1cccc(Cl)c1 | 9.77
CC(NC(=O)c1ccccc1NC(=O)CN1CCc2ccccc2C1)c1ccccc1 (centres unmarked) | 17.1
c1ccc2c(c1)ncn2CCOCCOCCn1cnc2ccccc21 | 3.54
Cc1cc(N2CCN(c3ccccc3)CC2)nc(-c2ccccc2)n1 | -15.1
COc1cc(C(=O)NCC(=O)NCC2COc3ccccc3O2)cc(OC)c1OC (centres unmarked) | 10
Cl.N[C@@H](Cc1ccc(O)cc1)c1nnc([C@H](CC(=O)O)NC(=O)C2CCNCC2)o1 | 12.5

SMILES | hERG current change (%, negative = inhibition) at 1uM [%]
Cc1ccc(-c2ccc(=O)n(CC(=O)Nc3ccc4c(c3)OCCO4)n2)cc1 | -4.11
COc1ccc(C(=O)Nc2nnc(-c3ccco3)s2)cc1 | 8.68
O=C1CN(C(=O)CSc2nc3ccccc3c(=O)n2CC2CCCO2)c2ccccc2N1 (centres unmarked) | 4.54
COc1cc(Cl)c(C)cc1NC(=O)[C@@H]1CCCN1C(=O)c1cccs1 | 8.4
O=C(OCC(=O)N1CCc2ccccc2C1)c1ccc(Cl)c([N+](=O)[O-])c1 | 9.29
Cc1ccccc1Cn1ccc(NC(=O)c2cc3ncc(Br)cn3n2)n1 | -6.66
CCCN1CCN(S(=O)(=O)c2cc3c(cc2C)NC(=O)CO3)CC1 | 4.93
CN(C)c1ccc(/C=C/C=C/c2sc3ccccc3[n+]2C)cc1.[O-][Cl+3]([O-])([O-])[O-] | 3.91
CCCCn1c(N)c(N(CC(C)C)C(=O)CN2C(=O)NC3(CC(C)CC(C)(C)C3)C2=O)c(=O)[nH]c1=O (centres unmarked) | 4.33
CCC(=O)N(Cc1ccco1)c1nc(-c2ccccc2)cs1 | 7.37
CCCCOC(=O)c1ccccc1N1C(=O)C2C3CCC(C3)C2C1=O (centres unmarked) | 7.32
O=C(Nc1ccccc1F)C(=Cc1sc(N2CCOCC2)nc1-c1ccccc1)C(=O)Nc1ccccc1F | 12.5
Cc1ccc(-c2cccc(C(=O)NCCc3ccccc3)n2)c2ccccc12 | 10.9
Cn1c(N/N=C/c2cc3ccccc3nc2Cl)nc2ccccc21 | 11.1
c1ccc2c(c1)nnn2CNc1nccs1 | 12.3
Cc1ccc2sc(C)[n+](CCCS(=O)(=O)[O-])c2c1 | 17.4
CN(C(=O)CSc1nnc(C2CC2)n1C1CC1)C1(C#N)CCCCC1 | -0.0297
COc1cc(CCCN2CCNC[C@@H]2C(C)O)cc(OC)c1OC (some centres unmarked) | 15.5
CCN1CCN(C(=O)c2ccc(Cl)c(S(=O)(=O)N3CCCCC3)c2)CC1 | -24.2
CCN(CC(=O)NCc1cccs1)C(=O)c1ccc(NS(=O)(=O)c2ccc(C(C)=O)cc2)cc1 | 3.59
Cc1ccccc1NC(=O)CSc1nnc(-c2ccco2)n1N | 12.9
O=c1nc2ccc(Cl)cn2c2ccc(S(=O)(=O)N3CCCCC3)cc12 | 9.86
